The list shows a part of the results. Many values rest on one well or one pass, so single values are uncertain.
system: A2058; assay: cell count relative to DMSO control; melanoma cells; higher = more viable cells; conditions: library dose: standard library concentration; 72 h
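Also: cells treated in 1,536-well plates, then fixed and DAPI-stained, with nuclei counted from automated high-throughput microscope images.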

| SMILES | cell count [%] |
| --- | --- |
| C/C(O)=C(\C#N)C(=O)Nc1cc(Br)ccc1Br + CC(C)CCN1c2nc(Nc3cc(F)c(O)c(F)c3)ncc2N(C)C(=O)C1C [BID1870] (first compound 10 µM, partner dose 1 µM) | 92.3 |
| O=c1[nH]nc(Sc2ncc([N+](=O)[O-])s2)n1-c1ccc2c(c1)OCCO2 + Cn1cc(C2=C(c3cn(C4CCN(Cc5ccccn5)CC4)c4ccccc34)C(=O)NC2=O)c2ccccc21 [Enzastaurin] (first compound 1 µM, partner dose 4 µM) | 80.2 |
| COc1ccc(C2=N[C@@H](c3ccc(Cl)cc3)[C@@H](c3ccc(Cl)cc3)N2C(=O)N2CCNC(=O)C2)c(OC(C)C)c1 [Nutlin-3] + Cc1cc(SCc2sc(-c3ccc(C(F)(F)F)c(F)c3)nc2C)ccc1OCC(=O)O [GW0742] (first compound 0.5 µM, partner dose 10 µM) | 81.7 |
| CNC(=O)c1cc(Oc2ccc(NC(=O)Nc3ccc(Cl)c(C(F)(F)F)c3)cc2)ccn1 [sorafenib] + O=C(Oc1ccc([N+](=O)[O-])cc1)N1CCC(C(O)(c2ccc3c(c2)OCO3)c2ccc3c(c2)OCO3)CC1 [JZL184] (first compound 2 µM, partner dose 5 µM) | 105 |
| O=C(/C=C/c1cccnc1)NCCCCC1CCN(C(=O)c2ccccc2)CC1 + C[As](C)SC[C@H](NC(=O)CC[C@H](N)C(=O)O)C(=O)NCC(=O)O [Darinaparsin] (first compound 0.05 µM, partner dose 2 µM) | 77.3 |
| Cn1sc(=O)n(Cc2ccccc2)c1=O + C[As](C)SC[C@H](NC(=O)CC[C@H](N)C(=O)O)C(=O)NCC(=O)O [Darinaparsin] (first compound 2 µM, partner dose 2 µM) | 80.1 |
| N#Cc1c(O)c2c(-c3ccc(-c4ccccc4O)cc3)csc2[nH]c1=O + O=C(Oc1ccc([N+](=O)[O-])cc1)N1CCC(C(O)(c2ccc3c(c2)OCO3)c2ccc3c(c2)OCO3)CC1 [JZL184] (first compound 10 µM, partner dose 5 µM) | 83.8 |
| O=C(Oc1ccc([N+](=O)[O-])cc1)N1CCC(C(O)(c2ccc3c(c2)OCO3)c2ccc3c(c2)OCO3)CC1 + CCCCCCCCCCCC1=C(O)C(=O)C=C(O)C1=O [Embelin] (first compound 5 µM, partner dose 6 µM) | 105 |

system: A375; assay: as above; conditions: library dose: standard library concentration; 72 h

| SMILES | cell count [%] |
| --- | --- |
| Cn1cncc1[C@@](N)(c1ccc(Cl)cc1)c1ccc2c(c1)c(-c1cccc(Cl)c1)cc(=O)n2C [tipifarnib] + C/C(O)=C(\C#N)C(=O)Nc1cc(Br)ccc1Br [LFM-A13] (first compound 0.05 µM, partner dose 10 µM) | 99.3 |
| Nc1nc(F)nc2c1ncn2[C@@H]1O[C@H](CO)[C@@H](O)[C@@H]1O [fludarabine] + C[As](C)SC[C@H](NC(=O)CC[C@H](N)C(=O)O)C(=O)NCC(=O)O [Darinaparsin] (first compound 1 µM, partner dose 2 µM) | 29.1 |
| OCc1c[nH]c2ccccc12 [Indole-3-carbinol] + C/C(O)=C(\C#N)C(=O)Nc1cc(Br)ccc1Br [LFM-A13] (first compound 4 µM, partner dose 10 µM) | 162 |
| Cc1cc(N2CCOCC2)cc2[nH]c(-c3c(NC[C@@H](O)c4cccc(Cl)c4)cc[nH]c3=O)nc12 + C/C(O)=C(\C#N)C(=O)Nc1cc(Br)ccc1Br [LFM-A13] (first compound 1 µM, partner dose 10 µM) | 126 |
| CS(=O)(=O)c1ccc(C(=O)Nc2ccc(Cl)c(-c3ccccn3)c2)c(Cl)c1 [vismodegib] + Cc1cc(SCc2sc(-c3ccc(C(F)(F)F)c(F)c3)nc2C)ccc1OCC(=O)O [GW0742] (first compound 5 µM, partner dose 10 µM) | 91.9 |
| Cn1sc(=O)n(Cc2ccccc2)c1=O + C/C(O)=C(\C#N)C(=O)Nc1cc(Br)ccc1Br [LFM-A13] (first compound 2 µM, partner dose 10 µM) | 109 |
| Cc1cc(Nc2cc(N3CCN(C)CC3)nc(/C=C/c3ccccc3)n2)n[nH]1 + C[As](C)SC[C@H](NC(=O)CC[C@H](N)C(=O)O)C(=O)NCC(=O)O [Darinaparsin] (first compound 0.2 µM, partner dose 2 µM) | 74.7 |
| CO[C@@H]1[C@H](N(C)C(=O)c2ccccc2)C[C@H]2O[C@]1(C)n1c3ccccc3c3c4c(c5c6ccccc6n2c5c31)C(=O)NC4 [Midostaurin] + O=C(Oc1ccc([N+](=O)[O-])cc1)N1CCC(C(O)(c2ccc3c(c2)OCO3)c2ccc3c(c2)OCO3)CC1 [JZL184] (first compound 0.4 µM, partner dose 5 µM) | 56.9 |
| O=C(Nc1ccccc1)c1cc([N+](=O)[O-])ccc1Cl + C/C(O)=C(\C#N)C(=O)Nc1cc(Br)ccc1Br [LFM-A13] (first compound 10 µM, partner dose 10 µM) | 110 |
| CC(=O)c1c(C)c2cnc(Nc3ccc(N4CCNCC4)cn3)nc2n(C2CCCC2)c1=O [palbociclib] + Cc1cc(SCc2sc(-c3ccc(C(F)(F)F)c(F)c3)nc2C)ccc1OCC(=O)O [GW0742] (first compound 0.2 µM, partner dose 10 µM) | 74.6 |
| CCCCCCCCCCCCCCCCCCOP(=O)([O-])OC1CC[N+](C)(C)CC1 [Perifosine] + O=C(Oc1ccc([N+](=O)[O-])cc1)N1CCC(C(O)(c2ccc3c(c2)OCO3)c2ccc3c(c2)OCO3)CC1 [JZL184] (first compound 2 µM, partner dose 5 µM) | 86.4 |
| O=C(Nc1ccccc1)c1cc([N+](=O)[O-])ccc1Cl + O=C(Oc1ccc([N+](=O)[O-])cc1)N1CCC(C(O)(c2ccc3c(c2)OCO3)c2ccc3c(c2)OCO3)CC1 [JZL184] (first compound 10 µM, partner dose 5 µM) | 131 |
| NC1(c2ccc(-c3nc4ccn5c(=O)[nH]nc5c4cc3-c3ccccc3)cc2)CCC1 + O=C(Oc1ccc([N+](=O)[O-])cc1)N1CCC(C(O)(c2ccc3c(c2)OCO3)c2ccc3c(c2)OCO3)CC1 [JZL184] (first compound 2 µM, partner dose 5 µM) | 104 |
| C[C@@H](Oc1cc(-c2cnn(C3CCNCC3)c2)cnc1N)c1c(Cl)ccc(F)c1Cl [Crizotinib] + O=C(Oc1ccc([N+](=O)[O-])cc1)N1CCC(C(O)(c2ccc3c(c2)OCO3)c2ccc3c(c2)OCO3)CC1 [JZL184] (first compound 1 µM, partner dose 5 µM) | 122 |
| COC(=O)c1sccc1S(=O)(=O)Nc1ccc(Nc2ccccc2)cc1OC + C/C(O)=C(\C#N)C(=O)Nc1cc(Br)ccc1Br [LFM-A13] (first compound 5 µM, partner dose 10 µM) | 96 |
| O=C(O)[C@@H]1[O][Sb](=[O])([O][Sb]2(=[O])[O][C@H]([C@H](O)CO)[C@H](O)[C@H](C(=O)O)[O]2)[O][C@H]([C@H](O)CO)[C@@H]1O (stereo partly specified) [stibogluconate] + C[As](C)SC[C@H](NC(=O)CC[C@H](N)C(=O)O)C(=O)NCC(=O)O [Darinaparsin] (first compound 10 µM, partner dose 2 µM) | 116 |
| C=CCNC1=C2C[C@@H](C)C[C@H](OC)[C@H](O)[C@@H](C)/C=C(\C)[C@H](OC(N)=O)[C@@H](OC)/C=C\C=C(/C)C(=O)NC(=CC1=O)C2=O [Tanespimycin] + Cc1cc(SCc2sc(-c3ccc(C(F)(F)F)c(F)c3)nc2C)ccc1OCC(=O)O [GW0742] (first compound 0.01 µM, partner dose 10 µM) | 93.8 |
| CN(C)S(=O)(=O)c1ccc2c(c1)/C(=C/c1cc3c([nH]1)CCCC3)C(=O)N2 + O=C(Oc1ccc([N+](=O)[O-])cc1)N1CCC(C(O)(c2ccc3c(c2)OCO3)c2ccc3c(c2)OCO3)CC1 [JZL184] (first compound 2 µM, partner dose 5 µM) | 98.2 |
| Nc1ncn([C@H]2C[C@H](O)[C@@H](CO)O2)c(=O)n1 [decitabine] + O=C(Oc1ccc([N+](=O)[O-])cc1)N1CCC(C(O)(c2ccc3c(c2)OCO3)c2ccc3c(c2)OCO3)CC1 [JZL184] (first compound 0.5 µM, partner dose 5 µM) | 98.9 |
| O=S(=O)(c1ccccc1)N(CC(F)(F)F)c1ccc(C(O)(C(F)(F)F)C(F)(F)F)cc1 + O=C(Oc1ccc([N+](=O)[O-])cc1)N1CCC(C(O)(c2ccc3c(c2)OCO3)c2ccc3c(c2)OCO3)CC1 [JZL184] (first compound 7 µM, partner dose 5 µM) | 91.5 |
| Cn1cnc2c(F)c(Nc3ccc(Br)cc3Cl)c(C(=O)NOCCO)cc21 [selumetinib] + C/C(O)=C(\C#N)C(=O)Nc1cc(Br)ccc1Br [LFM-A13] (first compound 0.075 µM, partner dose 10 µM) | 80.2 |
| CO[C@@H]1[C@H](N(C)C(=O)c2ccccc2)C[C@H]2O[C@]1(C)n1c3ccccc3c3c4c(c5c6ccccc6n2c5c31)C(=O)NC4 [Midostaurin] + C/C(O)=C(\C#N)C(=O)Nc1cc(Br)ccc1Br [LFM-A13] (first compound 0.4 µM, partner dose 10 µM) | 72.5 |
| CN(NC(=O)CC(=O)NN(C)C(=S)c1ccccc1)C(=S)c1ccccc1 + Cc1cc(SCc2sc(-c3ccc(C(F)(F)F)c(F)c3)nc2C)ccc1OCC(=O)O [GW0742] (first compound 0.03 µM, partner dose 10 µM) | 91.5 |
